In the supplement of paper PMC8512760:
Where a name gives a salt, the structure may show the parent alone. The list shows a part of the results. Most values come without repeats; read them as rough.

What was measured:
Assay in all cases: cell viability relative to vehicle (% of vehicle); basal-like triple-negative breast cancer lines; higher = less cytotoxic
Conditions in all cases: 10 µM; 72 h
HCC-1143 = tested on: HCC-1143
HCC-1187 = tested on: HCC-1187
MDA-468 = tested on: MDA-468
SUM-149 = tested on: SUM-149
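Note: stably firefly luciferase-GFP labeled cells in 96-well plates, viability read as luciferase photon flux after d-luciferin addition, treated wells normalized to vehicle wells, single-dose high-throughput screen.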

Row | SMILES | cell viability (HCC-1143) | cell viability (HCC-1187) | cell viability (MDA-468) | cell viability (SUM-149)
1 | C#Cc1cccc(Nc2ncnc3cc(OCCOC)c(OCCOC)cc23)c1.Cl [Erlotinib Hydrochloride] | 131 | 95 | 97.4 | 87.5
2 | CN1CCN(c2nc(C3=C(c4c[nH]c5ccccc45)C(=O)NC3=O)c3ccccc3n2)CC1 [Sotrastaurin (AEB071)] | 110 | 87.6 | 112 | 107
3 | Cc1cc(C)cc(OCC2CNC(=O)O2)c1 (stereo not given) [Metaxalone] | 89.3 | 90.6 | 105 | 105
4 | Cn1nnc2c(C(N)=O)ncn2c1=O [Temozolomide] | 86.7 | 83.5 | 96.9 | 172
5 | CN1CCCN=C1C=Cc1cccs1.O=C(O)c1cc2ccccc2c(Cc2c(O)c(C(=O)O)cc3ccccc23)c1O [Pyrantel Pamoate] | 81.2 | 90.2 | 112 | 98.9
6 | O=C(O)C1=CC(=NNc2ccc([O-])c(C(=O)[O-])c2)C=CC1=O.[Na+].[Na+] [Olsalazine Sodium] | 70.3 | 109 | 102 | 73
7 | CC(C)COc1ccc(CNC(=O)N(Cc2ccc(F)cc2)C2CCN(C)CC2)cc1 [Pimavanserin] | 78 | 41.6 | 58.6 | 52.2
8 | Oc1ccc(OC2CCCCO2)cc1 (stereo not given) [Deoxyarbutin] | 76.6 | 75.2 | 117 | 134
9 | O=C(C=Cn1cnc(-c2cc(C(F)(F)F)cc(C(F)(F)F)c2)n1)NNc1cnccn1 | 27.7 | 23 | 34.4 | 34.1
10 | CCN(CC)C(=S)SSC(=S)N(CC)CC [Disulfiram] | 79.1 | 17.1 | 39.7 | 132
11 | Nc1cccc2c1C(=O)N(C1CCC(=O)NC1=O)C2=O (stereo not given) [Pomalidomide (CC-4047)] | 93.7 | 73.7 | 82.7 | 118
12 | CCCCCCNC(=O)n1cc(F)c(=O)[nH]c1=O [Carmofur] | 83 | 73.3 | 82.2 | 69.8
13 | Cc1onc(-c2ccccc2Cl)c1C(=O)NC1C(=O)N2C1SC(C)(C)C2C(=O)[O-].O.[Na+] (stereo not given) [Cloxacillin Sodium] | 126 | 116 | 125 | 109
14 | CC1(C)SC2C(NC(=O)C(N)c3ccccc3)C(=O)N2C1C(=O)O.O.O.O (stereo not given) [Ampicillin Trihydrate] | 110 | 101 | 101 | 122
15 | CC1OC(n2cc(F)c(=O)[nH]c2=O)C(O)C1O (stereo not given) [Doxifluridine] | 64.2 | 78.9 | 88.4 | 85.7
16 | CC(C)(C)NCC(O)COc1cccc2c1CCC(O)=N2.Cl (stereo not given) [Carteolol HCl] | 86.5 | 106 | 140 | 117
17 | CCCCCCCCCCCCCCCCOP(=O)([O-])OCC[N+](C)(C)C [Miltefosine] | 78.7 | 91 | 97.2 | 94
18 | CC(C(=O)O)c1ccc(C(=O)c2cccs2)cc1 (stereo not given) [Suprofen] | 91.4 | 91.1 | 99.6 | 92.9
19 | C=C[C@]1(C)C[C@@H](OC(=O)CSC(C)(C)CNC(=O)[C@H](N)C(C)C)[C@]2(C)[C@H](C)CC[C@]3(CCC(=O)[C@H]32)[C@@H](C)[C@@H]1O [Valnemulin HCl] | 63.6 | 95 | 104 | 102
20 | Cn1c(=O)c2c(ncn2CC(O)CO)n(C)c1=O (stereo not given) [Dyphylline] | 93.5 | 91.9 | 85.5 | 113
21 | CC(C)(C(=O)O)c1ccc(C(O)CCCN2CCC(C(O)(c3ccccc3)c3ccccc3)CC2)cc1.Cl (stereo not given) [Fexofenadine HCl] | 80.9 | 92.6 | 92.9 | 124
22 | Cc1nc(NC(=O)N2CCCC2C(N)=O)sc1-c1ccnc(C(C)(C)C(F)(F)F)c1 (stereo not given) | 63.6 | 74 | 84.2 | 71.2
23 | CCCCc1ncc(C=C(Cc2cccs2)C(=O)O)n1Cc1ccc(C(=O)O)cc1.CS(=O)(=O)O [Eprosartan Mesylate] | 113 | 126 | 132 | 130
24 | Cc1cn(C2CC(N=[N+]=[N-])C(CO)O2)c(=O)[nH]c1=O (stereo not given) [Zidovudine] | 64.7 | 93.4 | 105 | 98.3
25 | COCCCOc1cc(CC(CC(N)C(O)CC(C(=O)NCC(C)(C)C(N)=O)C(C)C)C(C)C)ccc1OC.COCCCOc1cc(CC(CC(N)C(O)CC(C(=O)NCC(C)(C)C(N)=O)C(C)C)C(C)C)ccc1OC.O=C(O)C=CC(=O)O (stereo not given) [Aliskiren Hemifumarate] | 97.2 | 117 | 95.2 | 106

Row | SMILES | cell viability (HCC-1143) | cell viability (HCC-1187) | cell viability (MDA-468) | cell viability (SUM-149)
26 | O=c1ccn(C2OC(CO)C(O)C2O)c(=O)[nH]1 (stereo not given) [Uridine] | 112 | 85.3 | 111 | 112
27 | O=C(O)c1cccnc1 [Nicotinic Acid] | 69 | 91 | 95.2 | 105
28 | CC(=O)[N-]S(=O)(=O)c1ccc(N)cc1.[Na+] [Sulfacetamide Sodium] | 74.8 | 78.3 | 94.6 | 104
29 | CC(=O)OCC(=O)NCCCOc1cccc(CN2CCCCC2)c1.Cl [Roxatidine Acetate HCl] | 115 | 119 | 111 | 130
30 | Cl.NCCCC(N)(C(=O)O)C(F)F.O (racemic) [DL-α-Difluoromethylornithine (hydrochloride hydrate)] | 64.1 | 79 | 92.5 | 66.3
31 | CCC(=C(c1ccccc1)c1ccc(OCCN(C)C)cc1)c1ccccc1.O=C(O)CC(O)(CC(=O)O)C(=O)O [Tamoxifen Citrate] | 101 | 86.7 | 120 | 98.6
32 | CN1CCc2nc(C(=O)NC3CC(C(=O)N(C)C)CCC3NC(=O)C(=O)Nc3ccc(Cl)cn3)sc2C1.Cc1ccc(S(=O)(=O)O)cc1.O (stereo not given) [Edoxaban tosylate monohydrate] | 89.1 | 106 | 84.3 | 126
33 | CCCCc1oc2ccc(NS(C)(=O)=O)cc2c1C(=O)c1ccc(OCCCN(CCCC)CCCC)cc1 [Dronedarone] | 90.3 | 101 | 85.3 | 127
34 | CCOc1cc(CC(=O)NC(CC(C)C)c2ccccc2N2CCCCC2)ccc1C(=O)O (stereo not given) [Repaglinide] | 76.3 | 105 | 91.5 | 121
35 | O=c1cc(O)c(Cl)c[nH]1 [Gimeracil] | 92.2 | 91.7 | 91.4 | 110
36 | CCC(Nc1ncnc2nc[nH]c12)c1nc2cccc(F)c2c(=O)n1-c1ccccc1 (stereo not given) [CAL-101 (Idelalisib, GS-1101)] | 80.9 | 78.9 | 56.2 | 94.3
37 | C=C1C(=CC=C2CCCC3(C)C2CCC3C(C)CCCC(C)(C)O)CC(O)CC1O (stereo not given) [Calcitriol] | 68.5 | 122 | 80.9 | 78.4
38 | CCCNC1CCc2nc(N)sc2C1.Cl.Cl.O (stereo not given) [Pramipexole 2HCl Monohydrate] | 91.7 | 113 | 102 | 111
39 | CC(C)CC(N)=O [Isovaleramide] | 71.6 | 89.2 | 104 | 92.3
40 | COc1cc2c(cc1O)CCC1C2CCC2(C)C(O)CCC12 (stereo not given) [2-Methoxyestradiol (2-MeOE2)] | 115 | 44.1 | 105 | 174
41 | CC(Nc1ncnc2nc[nH]c12)c1cc2cccc(Cl)c2c(=O)n1-c1ccccc1 (stereo not given) | 92.4 | 75.9 | 52.4 | 85.2
42 | O=C(CCCN1CCC(O)(c2ccc(Cl)cc2)CC1)c1ccc(F)cc1 [Haloperidol] | 80.7 | 90.2 | 115 | 93.4
43 | NS(=O)(=O)c1cc2c(cc1Cl)NCNS2(=O)=O [Hydrochlorothiazide] | 99.2 | 133 | 123 | 108
44 | COc1cc2c(cc1Cc1cccc(Cl)c1F)c(=O)c(C(=O)O)cn2C(CO)C(C)C (stereo not given) [Elvitegravir (GS-9137)] | 52.5 | 49.7 | 52.2 | 90.5
45 | CC(=O)OC1(C(C)=O)CCC2C3C=C(Cl)C4=CC(=O)C5CC5C4(C)C3CCC21C (stereo not given) [Cyproterone Acetate] | 84.5 | 108 | 109 | 105
46 | CC(=O)N1CCN(c2ccc(OCC3COC(Cn4ccnc4)(c4ccc(Cl)cc4Cl)O3)cc2)CC1 (stereo not given) [Ketoconazole] | 101 | 61 | 86.2 | 130
47 | CCc1c2c(nc3ccc(OC(=O)N4CCC(N5CCCCC5)CC4)cc13)-c1cc3c(c(=O)n1C2)COC(=O)[C@]3(O)CC [Irinotecan HCl Trihydrate] | 73.2 | 73.2 | 82.5 | 114
48 | CS(=O)(=O)c1ccc(C2=C(c3ccccc3)C(=O)OC2)cc1 [Rofecoxib] | 109 | 94.9 | 115 | 115
49 | C1=C\COCc2cc(ccc2OCCN2CCCC2)Nc2nccc(n2)-c2cccc(c2)COC/1 [Pacritinib] | 49.6 | 45.1 | 40.3 | 71.5
50 | O=C([O-])CC(O)CC(O)C=Cc1c(C2CC2)nc2ccccc2c1-c1ccc(F)cc1.O=C([O-])CC(O)CC(O)C=Cc1c(C2CC2)nc2ccccc2c1-c1ccc(F)cc1.[Ca+2] (stereo not given) [Pitavastatin Calcium] | 54.7 | 43 | 33.1 | 53.1
